The whole screen tested about 310,000 compounds, of which about 14,000 (4.5%) showed an effect of 50% or more. Effects have a minus sign here. The list shows a part of the results.
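Note: peak tail current of the secondary pulse compared with the same well before compound.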

The assay deals with human ether-à-go-go-related gene (hERG) potassium channel (human, UniProt Q12809). Put plainly: primary screen, population patch clamp on CHO cells stably expressing hERG.
Chain of human ether-à-go-go-related gene (hERG) potassium channel (Q12809 whole entry, looked up): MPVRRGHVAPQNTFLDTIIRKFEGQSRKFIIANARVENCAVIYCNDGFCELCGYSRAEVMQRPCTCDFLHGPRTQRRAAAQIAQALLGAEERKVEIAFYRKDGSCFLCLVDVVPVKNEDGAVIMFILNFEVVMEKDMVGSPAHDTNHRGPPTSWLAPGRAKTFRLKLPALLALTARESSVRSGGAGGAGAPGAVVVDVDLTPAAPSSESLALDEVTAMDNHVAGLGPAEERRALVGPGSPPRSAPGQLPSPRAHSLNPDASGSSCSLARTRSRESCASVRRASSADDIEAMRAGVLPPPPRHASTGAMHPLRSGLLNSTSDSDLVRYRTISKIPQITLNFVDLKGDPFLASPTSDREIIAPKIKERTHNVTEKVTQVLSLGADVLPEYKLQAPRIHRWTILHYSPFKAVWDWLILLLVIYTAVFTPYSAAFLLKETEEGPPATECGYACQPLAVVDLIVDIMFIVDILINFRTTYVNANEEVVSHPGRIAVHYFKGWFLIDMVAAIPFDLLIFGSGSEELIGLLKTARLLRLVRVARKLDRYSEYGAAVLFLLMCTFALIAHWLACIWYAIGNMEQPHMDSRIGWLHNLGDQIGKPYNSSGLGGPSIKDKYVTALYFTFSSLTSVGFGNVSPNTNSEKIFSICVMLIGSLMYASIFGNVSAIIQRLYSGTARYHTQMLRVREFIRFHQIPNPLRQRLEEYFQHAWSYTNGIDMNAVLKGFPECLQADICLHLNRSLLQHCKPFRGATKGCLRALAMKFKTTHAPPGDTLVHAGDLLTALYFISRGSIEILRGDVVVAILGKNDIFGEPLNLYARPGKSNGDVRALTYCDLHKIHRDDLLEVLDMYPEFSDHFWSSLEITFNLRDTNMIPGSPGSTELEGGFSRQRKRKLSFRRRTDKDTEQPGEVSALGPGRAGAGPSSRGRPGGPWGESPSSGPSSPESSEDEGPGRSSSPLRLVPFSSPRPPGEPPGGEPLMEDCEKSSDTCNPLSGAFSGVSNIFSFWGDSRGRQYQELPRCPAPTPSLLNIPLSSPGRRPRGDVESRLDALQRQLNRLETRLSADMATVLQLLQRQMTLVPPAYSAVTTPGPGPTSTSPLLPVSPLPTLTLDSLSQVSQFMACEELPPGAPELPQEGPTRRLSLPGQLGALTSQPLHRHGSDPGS
Regarding `Cc1nc(NS(=O)(=O)c2ccccc2)sc1C(=O)NNS(=O)(=O)c1ccccc1`, the “hERG current change (%, negative = inhibition) at 10uM” value is 13.9%.
Under `O=C(CN1CCN(C(=O)c2ccco2)CC1)Nc1ccc2c(c1)OCO2` stands -26.6%.
With `Cc1ccc2c(C(=O)CN3CCC(C(N)=O)CC3)c(C)[nH]c2c1`, the “hERG current change (%, negative = inhibition) at 10uM” value is reported as 5.21%.
Under `COC(=O)C1NN=C(C(=O)c2ccc(Cl)cc2)C1c1ccc(OC)cc1` (centres unmarked) stands -26.3%; under `COC(=O)Cc1cnc(NC(=O)CSc2nc(C(C)C)cc(=O)[nH]2)s1`, 20.8%.
Under `O=C(c1ccccc1F)N1CCN=C1SCc1cccnc1` stands -1.53%; under `COc1ccc([C@@H]2CC=C(C(=O)O)[C@H](c3ccc(Cl)cc3)N2S(=O)(=O)c2ccc(Cl)cc2)cc1`, 1.6%.
Under `Cn1c2ccc(Cl)cc2c2nc3ccccc3nc21` stands 13.9%; under `CCOc1ccc(-c2nnc3ccc(SCc4ccc(C(=O)OC)o4)nn23)cc1`, -24.4%.
In the case of `COc1cc(/C=C/C(=O)O)cc(S(=O)(=O)NCCCC(=O)O)c1OC`, the “hERG current change (%, negative = inhibition) at 10uM” value came to 21.9%.
With `C/C(Cc1ccccc1)=N\NC(=O)CNC(=O)/C=C\c1ccccc1`, the “hERG current change (%, negative = inhibition) at 10uM” value is recorded as 14.2%.
Under `Cc1cc(OC(C)C(=O)NC2CCN(Cc3ccccc3)CC2)c2c(C)cc(=O)oc2c1` (centres unmarked) stands -15.2%; under `O=C(CSc1cn[nH]n1)Nc1ccc(Cl)cc1Cl`, 6.7%.
On to `O=C(Nc1ccc(NC(=O)c2ccccc2)nc1)c1ccncc1`, for which the “hERG current change (%, negative = inhibition) at 10uM” value is on record as -2.33%.
Turning to `Cc1cc(NC(=O)c2ccccc2Cl)ccc1NC(=O)c1ccccc1Cl`, the “hERG current change (%, negative = inhibition) at 10uM” value amounted to 9.49%.
Under `Cc1ccc(NC(=O)CN(C)C(=O)CSc2nc3ccccc3c(=O)n2Cc2ccco2)cc1` stands -71.1%.
On to `Cc1cc(C)nc(N2CCN(c3ncnc4c3cnn4Cc3ccc(Cl)cc3Cl)CC2)n1`, for which the “hERG current change (%, negative = inhibition) at 10uM” value came to 21.9%.
Then `COc1cccc(CNS(=O)(=O)c2c(C)nc3sccn3c2=O)c1`, with -13.6%; and `N#CC1CN(Cc2ccccc2)CN(Cc2ccccc2)C1`, with -0.854%.
Then `Cc1ccc(N2CCN(CC(O)COC3CCCCC3)CC2)cc1` (centres unmarked), with -56.1%; and `N#CCCn1c(O)c(N=NC(=O)CNC(=O)c2cccs2)c2ccccc21`, with -22.9%.
Under `N#Cc1cc([N+](=O)[O-])ccc1N1CCCC1` stands -38%; under `CCN(CC)C(=O)C(=O)c1cccn1-c1ccccc1C#N`, -2.5%; under `CNC(=O)c1csc(-c2cccs2)n1`, 4.14%.
`CC(=O)NC(C)c1cc(F)c2cccnc2c1O` (centres unmarked): the “hERG current change (%, negative = inhibition) at 10uM” value is on record as -8.75%.
Regarding `CCOC(=O)C1=C(O)C(=O)N(c2ccccc2)C1c1cccc([N+](=O)[O-])c1` (centres unmarked), the “hERG current change (%, negative = inhibition) at 10uM” value is on record as -26.7%.
Under `Cc1c(Cl)cnc(NC(=O)COC(=O)C2CC3CCCC(C2)C3=O)c1Cl` (centres unmarked) stands -4.81%; under `Cc1ccc(NC(=O)c2cc(S(=O)(=O)N3CCOCC3)cs2)cc1`, -8.31%; under `COc1ccccc1CNC(=O)COc1ccc(S(=O)(=O)N2CCCC2)cc1`, -5.44%.
With `Cc1cc(-c2n[nH]c(=S)n2/N=C/c2ccc(Cl)c([N+](=O)[O-])c2)n[nH]1`, the “hERG current change (%, negative = inhibition) at 10uM” value is reported as 15.1%.
Under `NC(=O)c1cccc(S(=O)(=O)N2CC(c3ccccc3)CC2=O)c1` (centres unmarked) stands -18.3%; under `O=C1CCN(Cc2ccc(O)cc2)CCN1[C@H](CO)c1ccccc1`, -6.93%; under `COc1ccc2[nH]c(C(O)(Cc3cccnc3)Cc3cccnc3)cc2c1.O`, -10%.
Take `CC(=C1C(=O)c2ccccc2C1=O)N1CCN(c2ccc(F)cc2)CC1`: the “hERG current change (%, negative = inhibition) at 10uM” value is reported as -69.8%.
In the case of `CC(C)(C)c1ccc(-c2nnc(SCC(=O)NC3CCS(=O)(=O)C3)n2N)cc1` (centres unmarked), the “hERG current change (%, negative = inhibition) at 10uM” value is reported as 5.46%.
On to `Nc1ccccc1NC(=O)CCn1c(=S)[nH]c2ccccc2c1=O`, for which the “hERG current change (%, negative = inhibition) at 10uM” value stood at 6.13%.
With `N#Cc1ccc(NC(=O)CSc2nc3[nH]c(=O)cc(O)c3s2)cc1`, the “hERG current change (%, negative = inhibition) at 10uM” value is 6.44%.
Under `CC(C)CCC(CCNCc1ccccn1)c1ccc2c(c1)OCO2.Cl` (centres unmarked) stands -75.5%; under `COc1ccc(CNC(=O)CN(C(=O)c2snc(C(N)=O)c2N)c2ccc(F)cc2)cc1`, 1.09%.
Then `Cl.OC(CN1CCNCC1)Cn1c2ccccc2c2ccccc21` (centres unmarked), with -6.23%; and `CCCC[C@@H]1CNCCN1CCc1cc(C(F)(F)F)cc(C(F)(F)F)c1`, with -10.7%; and `Cc1cc(-c2nnc3n2N=C(c2ccccc2)CS3)n[nH]1`, with -22.7%.
With `COCCn1nnnc1C(c1cccs1)N1CCN(c2ccccc2)CC1` (centres unmarked), the “hERG current change (%, negative = inhibition) at 10uM” value was -23.9%.
Then `CCOCCCNC(=O)c1cc2c(=O)n(CC)c3ccccc3c2s1`, with -22.2%; and `O=C(O)c1nn(-c2ccccc2C(F)(F)F)cc1O`, with -0.483%; and `COc1cc(/C=C2/C(=O)NN(c3ccc(F)cc3)C2=O)cc([N+](=O)[O-])c1O`, with 12.4%.
For `Cc1ccc(CC(=O)N2CCN(C)CC2)cc1`, the “hERG current change (%, negative = inhibition) at 10uM” value was 18.1%.
In the case of `CN(Cc1ccsc1)C(=O)Cn1cc(Br)ccc1=O`, the “hERG current change (%, negative = inhibition) at 10uM” value is on record as -10.3%.
`CCNC(=S)Nc1cc(C(=O)N2CCCC2)ccc1N1CCCC1`: the “hERG current change (%, negative = inhibition) at 10uM” value is reported as -10.3%.
On to `CCOc1ccc(CN2CCC(n3nccc3NC(=O)CCCc3ccccc3)CC2)cc1`, for which the “hERG current change (%, negative = inhibition) at 10uM” value is listed as -78.2%.
Then `Cc1cc(S(=O)(=O)Nc2ccc(C(=O)NCC3(N4CCCCC4)CCCCC3)cc2)ccc1F`, with -66.4%.
Under `CC(C)(C)NC(=O)NC(=O)COc1ccccn1` stands 26.5%; under `O=C1CN(C(=O)COC(=O)c2ccco2)c2ccccc2N1`, 5.05%; under `COCCNC(=O)Cn1c(=O)n(Cc2ccco2)c(=O)c2ccccc21`, -7.77%.
For the compound `O=S(=O)(c1ccccc1)c1nc(-c2cccs2)oc1NCCCn1ccnc1`, the “hERG current change (%, negative = inhibition) at 10uM” value is on record as -75.1%.
On to `CN(C)n1cnc2ccsc2c1=O`, for which the “hERG current change (%, negative = inhibition) at 10uM” value is given as 8.3%.
Then `CC(Cc1ccccc1)N/C=C1/CC(=O)NC1=O` (centres unmarked), with -1.98%; and `CCCOc1ccccc1/C=C(\C#N)C(=O)Nc1cccc(C)n1`, with 2.34%; and `CCCCNC(=S)Nc1cccc(S(=O)(=O)NC2=NCCC2)c1`, with 8.65%.
For the compound `CC(C)N1C2OC(C3OC4C(O3)N(C(C)C)S(=O)(=O)N4C(C)C)OC2N(C(C)C)S1(=O)=O` (centres unmarked), the “hERG current change (%, negative = inhibition) at 10uM” value was 2.27%.
`Cc1ccc(NC(=O)CCN2C(=O)c3ccccc3Sc3ncccc32)cc1`: the “hERG current change (%, negative = inhibition) at 10uM” value is 7.02%.
As to `Br.Cc1ccc(Cn2c(=N)n(CC(=O)c3ccc([N+](=O)[O-])cc3)c3ccccc32)cc1`, the “hERG current change (%, negative = inhibition) at 10uM” value is listed as -4.3%.
Under `CC(=O)c1ccc(NC(=O)CSc2nnc(Cn3cnc4ccccc43)o2)cc1` stands 8.36%; under `COc1ccc(/C=N/NC(=O)Cn2ccnc2C)cc1OC`, 3.56%; under `O=C1C2C(c3ccccc3)C=CC(c3ccccc3)C2C(=O)N1C1CCCCC1` (centres unmarked), 16.1%.
Consider `COc1ccc(C2(CNC(=O)/C=C\c3ccco3)CCCC2)cc1OC`, for which the “hERG current change (%, negative = inhibition) at 10uM” value is -18.4%.
Under `C=C(C)Cn1c(SCC#N)nc2ccccc2c1=O` stands -2.08%.
With `O=C(Cn1cnc2ccccc2c1=O)N1CCc2ccccc2C1`, the “hERG current change (%, negative = inhibition) at 10uM” value was found to be 1.61%.
Consider `CSc1ccc(C#N)cc1NC(=O)c1ccc(Cl)nc1`, for which the “hERG current change (%, negative = inhibition) at 10uM” value is -18.3%.
Then `Cc1nn(CC2CC2)c(=O)n1-c1ccccc1`, with 10%; and `O=C(c1cccc2c1-c1ccccc1C2)N1CCCCC1`, with -4.89%.
Then `CC(C)c1nn2c(=O)cc(COc3cccc(NC(=O)c4ccco4)c3)nc2s1`, with 4.36%; and `CC(CCCCC(=O)Nc1ccc(C(F)(F)F)cc1)NCCc1cnc[nH]1.O=C(O)/C=C\C(=O)O` (centres unmarked), with -10.2%.
Then `CC(C)Cc1ccc(C(C)C(=O)N2CCOCC2)cc1` (centres unmarked), with -15.7%; and `N=C1SCC(=O)N1c1ncc(Cc2ccc(F)cc2)s1`, with -13.1%.
In the case of `CC(C)OC(=O)C(C#N)c1nc2ccccc2nc1N1CCCC1` (centres unmarked), the “hERG current change (%, negative = inhibition) at 10uM” value stood at 7.04%.
Then `O=C1N=C(N2CCCC2)S/C1=C\c1ccccc1`, with 15.2%; and `C(=Nc1cccc2c(N=Cc3ccco3)cccc12)c1ccco1`, with 13.3%; and `Cc1c(Br)c([N+](=O)[O-])nn1CC(=O)Nc1ccc(C(N)=O)cc1`, with -2.84%.
Regarding `CCC(=O)OCC(=O)Nc1ccc(OC)cc1[N+](=O)[O-]`, the “hERG current change (%, negative = inhibition) at 10uM” value was found to be 17.1%.
For `CCOC(=O)c1cn(CC)c2ccc(S(=O)(=O)N3CCC(C)CC3)cc2c1=O`, the “hERG current change (%, negative = inhibition) at 10uM” value is -26.8%.
In the case of `N=C(N)N1CCN(Cc2ccccc2)CC1.O=S(=O)(O)O`, the “hERG current change (%, negative = inhibition) at 10uM” value came out at 14.5%.
Regarding `CCOCCSC1=C(C#N)C(c2cccs2)C(C(C)=O)=C(C)N1` (centres unmarked), the “hERG current change (%, negative = inhibition) at 10uM” value is -13.5%.
Under `COc1ccc(CNC(=O)COC(=O)c2nc3nc(C)cc(C)n3n2)cc1` stands -1.29%; under `Cc1cc(N/N=C/c2ccc(Cl)cc2Cl)nc(NCc2ccccc2)n1`, 12.9%.
Under `O=C(CNC(=O)c1ccc(Cl)cc1)OCc1nc2ccccc2s1` stands 17.3%; under `COc1ccccc1NC(=O)CN(c1ccccc1F)S(C)(=O)=O`, -0.409%; under `CCOC(=O)c1cc(CC)sc1NC(=O)C(c1ccccc1)c1ccccc1`, 10%.
For `COc1ccc(-n2c(Cn3c(=O)sc4ccccc43)nnc2SCC(=O)N2CCCC2)cc1`, the “hERG current change (%, negative = inhibition) at 10uM” value is -15.3%.

Values taken from PMC4336329 (PLoS ONE, 2015).
